PubChem BioAssay (Tox21)
Inconclusive results, whose numbers are uncertain, are shown with a selection of clear calls. For some assays here: Potencies beside an inconclusive call are fits to weak or partial responses and may not hold up. Activity calls are given as the source filed them. Unless noted, the call rests on the fitted dose curve; in most records, active means well fitted curve in the direction sought with a large enough effect in the repeat runs; inconclusive means weak or mixed curves; inactive means no such curve, though single readings can be large; an effect the other way counts as inactive or inconclusive.

Experiments:
[1] = biological target: Peroxisome proliferator-activated receptor gamma (Homo sapiens) (UniProt P37231); assay: qHTS assay to identify small molecule antagonists of the peroxisome proliferator-activated receptor gamma (PPARg) signaling pathway (AID 743191; calls by dose curve; further: on the % scale 0 is the no-effect control and ±100 the full control effect; nearly all actives have a fitted effect of over 30% in size); conditions: HEK293H PPARg-UAS-bla, beta-lactamase ratio, antagonist, 17 h; ratio activity, negative = inhibition: at 62.6 µM (top of the series) unless noted
Chain of UniProt P37231 (P37231 whole entry, looked up): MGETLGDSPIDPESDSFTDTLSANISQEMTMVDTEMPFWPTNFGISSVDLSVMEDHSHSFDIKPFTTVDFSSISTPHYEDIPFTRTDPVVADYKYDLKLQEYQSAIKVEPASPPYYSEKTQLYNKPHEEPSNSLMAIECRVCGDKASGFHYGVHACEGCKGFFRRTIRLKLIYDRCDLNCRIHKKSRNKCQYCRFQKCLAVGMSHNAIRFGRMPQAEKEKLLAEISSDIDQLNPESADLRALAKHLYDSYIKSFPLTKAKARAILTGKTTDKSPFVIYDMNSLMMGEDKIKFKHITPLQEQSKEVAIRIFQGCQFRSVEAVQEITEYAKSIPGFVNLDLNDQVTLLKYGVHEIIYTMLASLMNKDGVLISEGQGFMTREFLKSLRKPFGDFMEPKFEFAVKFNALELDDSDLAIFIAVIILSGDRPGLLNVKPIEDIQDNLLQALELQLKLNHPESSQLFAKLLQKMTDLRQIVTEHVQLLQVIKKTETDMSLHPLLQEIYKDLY
How it was run: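 GeneBLAzer PPARg UAS-bla HEK293H cells carrying a UAS-driven beta-lactamase reporter were plated at 3000 cells/well, preincubated 5 h at 37C, then given compound for 17 h at 37C; LiveBLAzer B/G FRET substrate was read after 1 h at room temperature.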

[2] = qHTS assay for small molecule agonists of the antioxidant response element (ARE) signaling pathway (AID 743202; active means well fitted activation curve with a large enough effect in the signal ratio in the repeat runs, not every such curve was filed as active; inconclusive means weak or mixed curves, or effect the other way; inactive means no such curve, though single readings can be large or run the other way; the % refers to the signal ratio; further: potency means the concentration at half of the fitted maximal effect; on activation: on the % scale 0 is the no-effect control and ±100 the full control effect); conditions: HepG2 ARE-bla reporter, beta-lactamase FRET, 16 h; activation: at 73.3 µM (top of the series) unless noted
How it was run: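 Compounds delivered in DMSO to ARE-bla HepG2 cells (2,000 cells/well, pre-incubated 5 h) and left 16 h at 37 C. LiveBLAzer B/G FRET substrate then added for 2 h at RT before fluorescence reading.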

[3] = qHTS assay to identify small molecule antagonists of the peroxisome proliferator-activated receptor delta (PPARd) signaling pathway - cell viability counter screen (AID 743213); conditions: PPARd-bla HEK293H viability, CellTiter-Glo luminescence, 17 h; viability change, negative = cytotoxic: at 62 µM (top of the series) unless noted; further: nearly all actives have a fitted effect of over 50% in size; further: potency means the concentration at half of the fitted maximal effect
How it was run: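 Cytotoxicity counter screen: CellTiter-Glo luminescence read 30 min after addition, in the same wells as the reporter assay. There, PPARd UAS-bla HEK293H cells (3000/well) were treated 17 h at 37 C with compound and 300 nM L165041.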

[4] = qHTS assay to identify small molecule agonists of the farnesoid-X-receptor (FXR) signaling pathway - cell viability counter screen (AID 743218); conditions: FXR-bla HEK293T viability, CellTiter-Glo luminescence, 16 h; viability change, negative = cytotoxic: at 62.6 µM (top of the series) unless noted; further: on the % scale 0 is the no-effect control and ±100 the full control effect; nearly all actives have a fitted effect of over 45% in size
How it was run: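 FXR-UAS-bla HEK 293T cells exposed to compounds for 16 h at 37C. Cytotoxicity read in the same wells by CellTiter-Glo luminescence after 30 min at room temperature, following the beta-lactamase FRET read.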

[5] = qHTS assay to identify small molecule agonists of the NFkB signaling pathway - cell viability counter screen (AID 1159515; calls by dose curve; further: nearly all actives have a fitted effect of over 55% in size; further: potency means the concentration at half of the fitted maximal effect)
How it was run: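 NFkB-bla ME-180 cells, 2,000/well, plated overnight at 37 C; compound added for 5 hr at 37 C. Viability read in the same wells as the bla reporter, by CellTiter-Glo luminescence after 30 min at room temperature.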

[6] = qHTS assay to identify small molecule agonists of the endoplasmic reticulum stress response signaling pathway (AID 1159516; active means well fitted activation curve with a large enough effect in the signal ratio in the repeat runs, not every such curve was filed as active; inconclusive means weak or mixed curves, or effect the other way; the % refers to the signal ratio; further: potency means the concentration at half of the fitted maximal effect); conditions: ESRE-bla HeLa, ER stress beta-lactamase reporter, 5 h; activation: at 61 µM (top of the series) unless noted
How it was run: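 CellSensor ESRE-bla HeLa cells, 1,500 per well, plated overnight, then exposed to compounds for 5 hr at 37 C. Beta-lactamase reporter read with LiveBLAzer B/G FRET substrate after 2 hr at room temperature, 405 nm excitation, 460 and 530 nm emission.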

[7] = qHTS assay to identify small molecule antagonists of the peroxisome proliferator-activated receptor gamma (PPARg) signaling pathway - cell viability counter screen (AID 743194); conditions: PPARg-bla HEK293H viability, CellTiter-Glo luminescence, 17 h; Potency: co-treated with 50 nM rosiglitazone unless noted; activity change, negative = cytotoxicity: at 62.6 µM (top of the series), co-treated with 50 nM rosiglitazone unless noted; further: potency means the concentration at half of the fitted maximal effect; nearly all actives have a fitted effect of over 55% in size
How it was run: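 PPARg-UAS-bla HEK293H cells were plated, rested 5 h at 37 C, then treated with compounds plus rosiglitazone (50 nM final) for 17 h at 37 C; viability was then read by CellTiter-Glo luminescence after 30 min at room temperature.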

[8] = qHTS assay for small molecule agonists of the antioxidant response element (ARE) signaling pathway - cell viability counter screen (AID 743203; calls by dose curve; further: potency means the concentration at half of the fitted maximal effect; nearly all actives have a fitted effect of over 55% in size)
How it was run: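 ARE-bla HepG2 cells were plated, rested 5 h at 37C/5% CO2, then exposed to compounds in DMSO for 16 h. Viability was read as CellTiter-Glo luminescence after 30 min at room temperature, in the same wells as the ARE screen.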

[9] = qHTS assay for small molecule activators of the heat shock response signaling pathway - cell viability counter screen (AID 743209); conditions: HSE-bla HeLa viability, CellTiter-Glo luminescence, 5 h; activity change, negative = cytotoxicity: at 62.6 µM (top of the series) unless noted; further: potency means the concentration at half of the fitted maximal effect; nearly all actives have a fitted effect of over 50% in size
How it was run: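 HSE-bla HeLa cells plated overnight, then exposed to Tox21 compounds (23 nL in DMSO) for 5 h at 37 C. After the bla reporter read, CellTiter-Glo was added in the same wells and luminescence read after 30 min at room temperature.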

[10] = qHTS assay for small molecule activators of the heat shock response signaling pathway (AID 743210; active means well fitted activation curve with a large enough effect in the signal ratio in the repeat runs, with a control signal flat, not every such curve was filed as active; inconclusive means weak or mixed curves; the % refers to the signal ratio; further: potency means the concentration at half of the fitted maximal effect); conditions: HeLa HSE-bla reporter, beta-lactamase ratio, 5 h; activation: at 62.6 µM (top of the series)
How it was run: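 Reporter gene assay: HeLa cells stably bearing an HSE-bla construct, compound treatment 5 h at 37 C, LiveBLAzer substrate 2.5 h at RT, fluorescence intensity.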

[11] = qHTS assay to identify small molecule agonists of the peroxisome proliferator-activated receptor delta (PPARd) signaling pathway - cell viability counter screen (AID 743211); conditions: PPARd-bla HEK293H viability, CellTiter-Glo luminescence, 17 h; activity change, negative = cytotoxicity: at 62.6 µM (top of the series) unless noted; further: nearly all actives have a fitted effect of over 55% in size; further: potency means the concentration at half of the fitted maximal effect
How it was run: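 Viability was measured as CellTiter-Glo luminescence (30 min, room temperature) in the same wells as the beta-lactamase readout. GeneBLAzer PPARd UAS-bla HEK293H cells received compound after 5 h plating and were incubated 17 h at 37 C.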

[12] = biological target: Bile acid receptor (Homo sapiens) (UniProt Q96RI1); assay: qHTS assay to identify small molecule antagonists of the farnesoid-X-receptor (FXR) signaling pathway (AID 743217; active means well fitted inhibition curve with a large enough effect in the signal ratio in the repeat runs, not every such curve was filed as active; inconclusive means weak or mixed curves, or effect the other way; inactive means no such curve, though single readings can be large or run the other way; the % refers to the signal ratio; further: on the % scale 0 is the no-effect control and ±100 the full control effect); conditions: HEK293T FXR-UAS-bla, beta-lactamase ratio, CDCA-stimulated, 16 h; activity change, negative = inhibition: at 62.6 µM (top of the series) unless noted
Chain of UniProt Q96RI1 (Q96RI1 whole entry, looked up): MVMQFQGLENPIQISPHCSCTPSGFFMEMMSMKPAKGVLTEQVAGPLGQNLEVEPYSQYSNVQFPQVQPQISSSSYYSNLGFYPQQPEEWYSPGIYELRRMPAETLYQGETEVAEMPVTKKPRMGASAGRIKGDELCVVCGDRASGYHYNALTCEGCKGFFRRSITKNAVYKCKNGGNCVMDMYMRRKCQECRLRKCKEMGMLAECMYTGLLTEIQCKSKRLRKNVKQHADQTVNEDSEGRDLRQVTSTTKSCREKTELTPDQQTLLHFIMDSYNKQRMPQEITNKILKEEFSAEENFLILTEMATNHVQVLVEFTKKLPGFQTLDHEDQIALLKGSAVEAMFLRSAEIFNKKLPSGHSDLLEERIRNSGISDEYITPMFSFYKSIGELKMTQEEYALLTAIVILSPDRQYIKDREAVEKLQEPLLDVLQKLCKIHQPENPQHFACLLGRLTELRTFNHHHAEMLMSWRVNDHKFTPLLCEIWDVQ
How it was run: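 FXR-UAS-bla HEK 293T cells (beta-lactamase reporter) given compound plus chenodeoxycholic acid (50 uM final), 16 h at 37C. LiveBLAzer B/G FRET substrate added for 2 h at room temperature; fluorescence read.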

[13] = biological target: Vitamin D3 receptor (Homo sapiens) (UniProt P11473); assay: qHTS assay to identify small molecule agonists of the vitamin D receptor (VDR) signaling pathway (AID 743222; calls by dose curve; further: potency means the concentration at half of the fitted maximal effect); conditions: HEK293T VDR-UAS-bla, beta-lactamase FRET ratio, 16 h; activation: at 63.5 µM (top of the series) unless noted
Chain of UniProt P11473 (P11473 whole entry, looked up): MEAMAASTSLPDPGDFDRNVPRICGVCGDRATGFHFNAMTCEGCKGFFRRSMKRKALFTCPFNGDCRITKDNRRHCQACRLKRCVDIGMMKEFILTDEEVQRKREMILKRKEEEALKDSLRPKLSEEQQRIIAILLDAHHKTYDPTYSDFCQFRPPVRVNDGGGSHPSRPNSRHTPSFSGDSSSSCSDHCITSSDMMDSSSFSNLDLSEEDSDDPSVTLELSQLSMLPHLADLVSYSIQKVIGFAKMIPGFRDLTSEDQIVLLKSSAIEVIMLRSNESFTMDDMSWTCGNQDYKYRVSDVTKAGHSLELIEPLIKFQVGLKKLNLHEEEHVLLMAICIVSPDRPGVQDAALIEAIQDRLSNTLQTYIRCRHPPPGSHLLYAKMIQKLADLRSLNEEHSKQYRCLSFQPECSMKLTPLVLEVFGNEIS
How it was run: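 VDR-bla cells plated 4 h at 37 C, then exposed to compounds for 16 h at 37 C. Beta-lactamase reporter activity measured by fluorescence after 2 h room-temperature loading with LiveBLAzer B/G FRET substrate.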

[14] = biological target: Vitamin D3 receptor (Homo sapiens) (UniProt P11473); assay: qHTS assay to identify small molecule antagonists of the vitamin D receptor (VDR) signaling pathway (AID 743223; active means well fitted inhibition curve with a large enough effect in the signal ratio in the repeat runs, not every such curve was filed as active; inconclusive means weak or mixed curves, or effect the other way; inactive means no such curve, though single readings can be large or run the other way; the % refers to the signal ratio; further: on the % scale 0 is the no-effect control and ±100 the full control effect); conditions: VDR-UAS-bla HEK293T, beta-lactamase FRET ratio, 16 h; activity change, negative = inhibition: at 61 µM (top of the series) unless noted
How it was run: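 Antagonist mode: compound added to VDR-bla cells alongside agonist 1alpha,25-dihydroxyvitamin D3 (3 nM final), incubation 16 h at 37C. Read-out is LiveBLAzer FRET fluorescence, 2 h at room temperature.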

[15] = qHTS assay to identify small molecule agonists of the vitamin D receptor (VDR) signaling pathway - cell viability counter screen (AID 743224); further: potency means the concentration at half of the fitted maximal effect; nearly all actives have a fitted effect of over 50% in size
How it was run: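 VDR-bla cells, 4 h after plating, exposed to compounds for 16 h at 37C; viability then read in the same wells as CellTiter-Glo luminescence after 30 min at room temperature, following the bla FRET read.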

[16] = biological target: Peroxisome proliferator-activated receptor delta (Homo sapiens) (UniProt Q03181); assay: qHTS assay to identify small molecule antagonists of the peroxisome proliferator-activated receptor delta (PPARd) signaling pathway (AID 743215; active means well fitted inhibition curve with a large enough effect in the signal ratio in the repeat runs, not every such curve was filed as active; inconclusive means weak or mixed curves, or effect the other way; inactive means no such curve, though single readings can be large or run the other way; the % refers to the signal ratio;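 further: cells stimulated with agonist L165041 at 300 nM final during compound exposure; on the % scale 0 is the no-effect control and ±100 the full control effect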); conditions: HEK293H PPARd-UAS-bla, beta-lactamase FRET ratio, antagonist, 17 h; ratio activity, negative = inhibition: at 62 µM (top of the series) unless noted
Chain of UniProt Q03181 (Q03181 whole entry, looked up): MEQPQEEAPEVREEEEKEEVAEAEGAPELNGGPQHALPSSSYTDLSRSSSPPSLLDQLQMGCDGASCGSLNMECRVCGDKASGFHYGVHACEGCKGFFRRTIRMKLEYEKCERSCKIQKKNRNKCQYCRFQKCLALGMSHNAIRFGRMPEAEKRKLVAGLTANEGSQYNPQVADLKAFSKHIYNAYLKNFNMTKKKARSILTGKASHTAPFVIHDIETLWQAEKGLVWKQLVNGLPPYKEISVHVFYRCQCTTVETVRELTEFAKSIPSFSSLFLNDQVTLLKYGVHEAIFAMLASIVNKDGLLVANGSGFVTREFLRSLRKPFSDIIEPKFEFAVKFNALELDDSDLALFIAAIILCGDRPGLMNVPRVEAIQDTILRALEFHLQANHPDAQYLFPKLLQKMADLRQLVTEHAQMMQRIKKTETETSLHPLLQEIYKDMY
How it was run: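 PPARd-bla HEK293H cells (UAS-bla reporter) preincubated 5 h, then given compound plus 300 nM final L165041 agonist for 17 h at 37 C. Beta-lactamase activity read by LiveBLAzer B/G FRET substrate fluorescence after 2 h at room temperature.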

[17] = qHTS assay to identify small molecule antagonists of the vitamin D receptor (VDR) signaling pathway - cell viability counter screen (AID 743225); conditions: VDR-bla HEK293T viability, CellTiter-Glo luminescence, 16 h; viability change, negative = cytotoxic: at 61 µM (top of the series) unless noted; further: on the % scale 0 is the no-effect control and ±100 the full control effect; nearly all actives have a fitted effect of over 50% in size
How it was run: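 Cytotoxicity counter screen read by CellTiter-Glo luminescence (30 min, room temperature) in the same wells as the VDR-bla antagonist readout. HEK 293T VDR-UAS-bla cells had 16 h at 37C with compound and 3 nM (final) 1-alpha,25-dihydroxyvitamin D3, then 2 h with FRET substrate.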
Tags describe the fitted curve by direction and shape or compound fluorescence and quenching.

BrCBr
inconclusive: ratio activity, negative = inhibition [1] 8.59% [at 81.1 µM] | Potency [5] 56.6 µM [rising, single point]
inactive: Potency [2] | Potency [3] | Potency [4] | Potency [6]

Fc1ccc(Oc2ccnc3cc(Cl)cc(Cl)c23)cc1
inconclusive: Potency [7] 61.6 µM [cytotoxic, single point] | Potency [8] 68.6 µM [cytotoxic, single point] | Potency [9] 54.9 µM [cytotoxic, single point] | Potency [10] 54.9 µM | Potency [11] 54.9 µM [cytotoxic, single point] | activity change, negative = inhibition [12] 1.63% | Potency [13] 21.9 µM [inhibitor, partial curve, poor fit] | activity change, negative = inhibition [14] -40.1% | Potency [5] 61.6 µM [cytotoxic] | Potency [6] 2.45 µM [rising, single point]
active: Potency [2] 12.2 µM | Potency [15] 49 µM

CNC(=O)NC(O)C(Cl)(Cl)Cl (configuration not stated)
inconclusive: ratio activity, negative = inhibition [1] -8.9% | Potency [3] 16.8 µM [rising, full curve]
inactive: Potency [10] | Potency [16] | Potency [5] | Potency [6]

FC(Cl)(Cl)Cl
inconclusive: activity change, negative = inhibition [14] 23.6% | Potency [5] 54.8 µM [rising, partial curve, poor fit]
inactive: Potency [1] | Potency [2] | Potency [10] | Potency [11] | Potency [17] | Potency [6]
